# Test results from PubChem BioAssay AID2546 (National Center for Advancing Translational Sciences (NCATS), 2010).
# In all, about 310,000 compounds went through this assay and about 11,000 (3.5%) were called active. The inconclusive results got no clear call from the source; some entries with a clear call stand among them for comparison. Calls follow the shape of the dose curve; as a rule, active = well fitted inhibition curve with a large enough effect; inconclusive = small, poorly fitted or top-dose-only effect, or effect the other way; inactive = flat fitted curve, though single readings scatter. Potencies of inconclusive entries are left out as doubtful fits.
# Assay: VP16 counterscreen qHTS for inhibitors of ROR gamma transcriptional activity;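 also: Gal4-VP16 expression switched on by copper sulfate through the metallothionein promoter; nearly all actives have a fitted effect of over 50% in size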
# Conditions: Drosophila S2 Gal4-VP16 UAS-luciferase, luminescence, 20 h; series mostly up to 53.6 µM; activity, negative = inhibition: at the top concentration
# % is scaled to controls: 0 for no effect and ±100 for the full control effect; potency is read from the fitted curve at half-maximal effect; tags tell the direction and shape of the fitted curve.
Compound,Potency,"activity, negative = inhibition"
COc1cc(-n2c(=S)[nH]c3ccccc3c2=O)c(Cl)cc1Cl,active: 5.62 µM,–
C/C(=N\NC(=O)c1ccccc1O)c1c(O)n(C2CCCCC2)c(=O)[nH]c1=O,active: 11.2 µM,–
CCCN1CCCC2Cc3nc(N)ncc3CC21 (configuration not stated),–,inactive: -3.11%
CN(C)[C@@H]1C(=O)C(C(N)=O)=C(O)[C@@]2(O)C(=O)C3=C(O)c4c(O)ccc(Cl)c4[C@@](C)(O)C3C[C@@H]12 (some centres not stated),–,inactive: -11.8%
CC(C)C(=O)Nc1ccc(N2CCN(C)CC2)c(F)c1,–,inactive: 7.92% [at 10 µM]
Cc1n[nH]c(C)c1CCCCOc1ccc([N+](=O)[O-])cc1,"inconclusive [inhibitor, partial curve, poor fit]",–
COC(=O)c1cc(Oc2ccc(Cl)cc2Cl)ccc1[N+](=O)[O-],–,inactive: 17.3%
CCCCc1ccc(C(=O)O)nc1,active: 8.91 µM,–
BrCC1C[n+]2c(SCc3ccccc3)nc3sc4c(c3c2O1)CCCC4 (configuration not stated),–,inactive: 3.21%
CCC(=NCc1ccc2c(c1)OCO2)c1c(O)n(C2CCCCC2)c(=O)[nH]c1=O,"inconclusive [inhibitor, single point]",–
C[C@]12CCC3C(C=CC4=CC(=O)CC[C@]43C)C1CC[C@]2(O)CCC(=O)O (some centres not stated),"inconclusive [activator, single point]",–
Cc1ccc(N=Nc2cc(C)ccc2N)cc1,"inconclusive [inhibitor, single point]",–
Fc1ccccc1CCNCc1cccc2ccccc12,active: 20 µM,–
CCC(C)n1c(O)c(/C=N/NC(=O)c2ccncc2)c(=O)[nH]c1=S (configuration not stated),"inconclusive [inhibitor, single point]",–
COc1cc2c3cc1Oc1cc(ccc1O)C[C@@H]1c4c(cc(OC)c(O)c4Oc4ccc(cc4)C[C@H]3N(C)CC2)CCN1C,"inconclusive [inhibitor, full curve, poor fit]",–
O=C(c1cccc(C(F)(F)F)c1)C1CCCN(Cc2ncc[nH]2)C1 (configuration not stated),active: 15.8 µM,–
CCc1ccc(/C=C(/C#N)C(N)=S)cc1,"inconclusive [inhibitor, single point]",–
CCCCCCC(=O)N/N=C/c1c(O)n(C(C)CC)c(=S)[nH]c1=O (configuration not stated),"inconclusive [inhibitor, single point]",–
O=c1[nH]c(=S)n(Cc2ccc(F)cc2)c(O)c1/C=N/N1CCCCCC1,"inconclusive [inhibitor, single point]",–

Compound,Potency,"activity, negative = inhibition"
CCOC(=O)c1cccc(NC2c3ccccc3C(=O)N2Cc2ccco2)c1 (configuration not stated),active: 12.6 µM,–
CN1C(=O)N(C)C(=O)C(CCc2ccccn2)(CCc2ccccn2)C1=O,–,inactive: -11.6%
CC1(C)C[C@H]2C=C(C=O)[C@]3(C=O)C[C@]3(C)[C@H]2C1,active: 1.12 µM,–
CCOc1cc(C2C(C#N)=C(N)Oc3c2c(=O)oc2ccccc32)ccc1OC(=O)c1cccs1 (configuration not stated),–,inactive: -20.4%
CCCc1[nH]nc2c1C1(C(=O)N(Cc3ccccc3)c3ccccc31)C(C(=O)OC)=C(N)O2 (configuration not stated),"inconclusive [inhibitor, single point]",–
CC(=O)C1C2c3ccccc3O[C@@]1(C)N=c1s/c(=C/c3ccoc3)c(=O)n12 (some centres not stated),"inconclusive [inhibitor, partial curve, poor fit]",–
CC1(C)C(=O)C=C[C@@]2(C)C1=C(O)C(=O)[C@@]1(C)C2CC[C@@]2(C)C(c3ccoc3)C[C@H]3O[C@@]321 (some centres not stated),active: 10 µM,–
Cc1cccc(CN2CCCC(C(=O)c3ccc(C(F)(F)F)cc3)C2)n1 (configuration not stated),active: 7.94 µM,–
CN1C(=O)C(Cc2ccc(OCc3ccccc3)cc2)C(=O)N(C)C1=O,"inconclusive [activator, partial curve, poor fit]",–
Cc1ccc(-c2nc3ccccc3c(=O)n2-c2nccs2)cc1,active: 11.2 µM,–
COC(=O)C1=C(C)NC(C)=C(C(=O)NCCCN2CCC(c3ccccc3)(c3ccccc3)CC2)C1c1ccc([N+](=O)[O-])cc1 (configuration not stated),"inconclusive [inhibitor, single point]",–
CCC(=NCc1ccc(F)cc1)c1c(O)n(C)c(=O)n(C)c1=O,active: 22.4 µM,–
CN1CC[C@@]23CCCCC2C1Cc1ccc(O)cc13 (some centres not stated),–,inactive: -1.91%
CN1CCN(c2ccc([N+](=O)[O-])c3no[n+]([O-])c23)CC1,active: 5.62 µM,–
CN(C)C(=S)SC(=S)N(C)C,"inconclusive [inhibitor, full curve]",–
O=C(N/N=C/c1c(O)n(Cc2ccccc2)c(=O)[nH]c1=O)c1ccccc1O,"inconclusive [inhibitor, partial curve, poor fit]",–
CC(C)Oc1cc(-n2c(=S)[nH]c3ccccc3c2=O)c(Cl)cc1Cl,active: 5.01 µM,–
O=C(CN1CCCCC1c1cccnc1)c1ccccc1 (configuration not stated),–,inactive: 21.2%
